According to the supplement of paper PMC10369915:
The list shows a part of the results. Cut-off read from the data, not from the text of the source: active = 3.2 or more and inactive = the rest. Only a few entries rise above the background.

Experiments:
Assay in all cases: enrichment score (SH2-bound / input frequency) (ratio); bacterial display of known human phosphotyrosine sites (pTyr-Var adds point mutants) read by sequencing; higher = stronger binding; tyrosines were phosphorylated by kinases first
Conditions in all cases: peptide library: pTyr-Var
[1] = target: SHP2 C-SH2 domain E139D
[2] = target: SHP2 C-SH2 domain wild-type
[3] = target: SHP2 N-SH2 domain L43F
[4] = target: SHP2 N-SH2 domain T42A
[5] = target: SHP2 N-SH2 domain T52S
[6] = target: SHP2 N-SH2 domain wild-type

Measured: enrichment score
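Note: displayed peptides selected on beads carrying the immobilized SH2 domain, with library peptides lacking any tyrosine serving as negative controls.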

LLVVLNKYRCY [PSEN1_Y154_Y154N]
inactive: [1] 1.36 | [2] 1.61 | [3] 1.04 | [4] 1.12 | [5] 1.34 | [6] 1.24

PRQRRYVFFFS [PTEN_Y174_S170R_YF]
inactive: [1] 0.313 | [2] 0.319 | [3] 0.399 | [4] 0.343 | [5] 0.221 | [6] 0.252

GGFTWYCDGKK [PROS1_Y266_C265W_YF]
inactive: [1] 0.635 | [2] 0.899 | [3] 0.687 | [4] 0.601 | [5] 0.542 | [6] 1.06

ECKASYPGKIT [PRSS3_Y232]
inactive: [1] 0.653 | [2] 0.583 | [3] 0.639 | [4] 0.699 | [5] 0.754 | [6] 0.634

SASWTYVRWFD [PTDSS1_Y274_P269S]
inactive: [1] 1.97 | [2] 1.8 | [3] 1.65 | [4] 1.68 | [5] 1.92 | [6] 2.02

SENYTYIWWLN [PSG4_Y271_K267E]
inactive: [1] 0.513 | [2] 0.679 | [3] 0.706 | [4] 0.529 | [5] 0.577 | [6] 0.731

PSQRRNVFFFS [PTEN_Y174_Y174N_YF]
inactive: [1] 0.698 | [2] 0.535 | [3] 0.701 | [4] 0.657 | [5] 0.603 | [6] 0.779

VMIFAYLLHRG [PTEN_Y138_C136Y_YF]
inactive: [1] 1.85 | [2] 1.67 | [3] 1.79 | [4] 1.52 | [5] 1.89 | [6] 2

TEDAEYDVQSK [PTCHD3_Y335_P333A]
inactive: [1] 0.497 | [2] 0.42 | [3] 0.484 | [4] 0.536 | [5] 0.571 | [6] 0.488

LIEQAYDNPHE [PRPF8_Y871]
inactive: [1] 0.669 | [2] 0.763 | [3] 0.852 | [4] 0.61 | [5] 0.751 | [6] 0.936

MCITQYERESQ [PRNP_Y218]
inactive: [1] 0.739 | [2] 0.574 | [3] 0.607 | [4] 0.699 | [5] 0.639 | [6] 0.746

MCITRYERESQ [PRNP_Y218_Q217R]
inactive: [1] 0.609 | [2] 0.415 | [3] 0.469 | [4] 0.433 | [5] 0.52 | [6] 0.478

QRCFVYFFSFL [PTEN_Y176_R173C_YF]
inactive: [1] 2.25 | [2] 2.2 | [3] 2.42 | [4] 2.36 | [5] 2.63 | [6] 2.39

GGYTCYCDGKK [PROS1_Y266]
inactive: [1] 0.784 | [2] 1.1 | [3] 0.839 | [4] 0.822 | [5] 0.737 | [6] 1.24

ECKASCPGKIT [PRSS3_Y232_Y232C]
inactive: [1] 0.769 | [2] 0.753 | [3] 0.792 | [4] 0.691 | [5] 0.965 | [6] 0.767

GESVSYLFSHV [PRPS1_Y311]
inactive: [1] 1.02 | [2] 1.47 | [3] 0.89 | [4] 1.65 | [5] 1.02 | [6] 0.956

QLCVSYPGGFT [PROS1_Y259_N258S_YF]
inactive: [1] 0.81 | [2] 1.37 | [3] 0.935 | [4] 0.726 | [5] 0.991 | [6] 1.15

PDDPNYSLVDD [PSTPIP2_Y323]
inactive: [1] 0.59 | [2] 0.551 | [3] 0.518 | [4] 0.357 | [5] 0.463 | [6] 0.49

RVFIKYLPEWT [PSEN1_Y240_L235R]
inactive: [1] 2.23 | [2] 2.09 | [3] 2.3 | [4] 1.97 | [5] 2.22 | [6] 1.87

EFITRYIDSLK [PSMA7_Y110_A112D_YF]
inactive: [1] 1.01 | [2] 0.836 | [3] 0.97 | [4] 1.15 | [5] 1.36 | [6] 1.19

WISNRSLDFSS [PRPH2_Y184_Y184S]
inactive: [1] 1.04 | [2] 1.01 | [3] 1.03 | [4] 1.23 | [5] 0.935 | [6] 1.13

EYITRYIDSLK [PSMA7_Y110_A112D]
inactive: [1] 1.36 | [2] 1.08 | [3] 1.38 | [4] 1.49 | [5] 1.15 | [6] 1.2

LLVVLCKYRCY [PSEN1_Y154_Y154C]
inactive: [1] 3.13 | [2] 3.1 | [3] 3.05 | [4] 2.34 | [5] 2.8
active: [6] 4.15

PKSWNYELPAT [PROM1_Y34_A31S]
inactive: [1] 0.63 | [2] 0.449 | [3] 0.67 | [4] 0.533 | [5] 0.692 | [6] 0.426

CEDGTYSPEIS [PTDSS1_Y424]
inactive: [1] 0.762 | [2] 0.742 | [3] 0.699 | [4] 0.583 | [5] 0.645 | [6] 0.717

LVLIKYLPEWT [PSEN1_Y240_F237L]
active: [1] 3.95 | [2] 3.35 | [3] 3.65 | [4] 3.41 | [5] 3.68 | [6] 3.76

PSQRRYVYYYS [PTEN_Y174]
inactive: [1] 0.6 | [2] 0.581 | [3] 0.475 | [4] 0.365 | [5] 0.53 | [6] 0.584

LLVVVYKFRCF [PSEN1_Y154_L153V_YF]
inactive: [1] 2.67 | [2] 2.82 | [3] 2 | [4] 2.37 | [5] 2.79 | [6] 2.76

LRWREYQRQDF [PRKRIP1_Y90_R87W_YF]
inactive: [1] 2.74 | [2] 2.38 | [3] 2.81 | [4] 2.4 | [5] 2.88 | [6] 2.42

VLICAYLLHRG [PTEN_Y138_M134L]
inactive: [1] 2.3 | [2] 2.41 | [3] 2.09 | [4] 1.87 | [5] 1.91 | [6] 2.5

WISNRYLDFSS [PRPH2_Y184]
inactive: [1] 1.46 | [2] 1.15 | [3] 1.18 | [4] 1.19 | [5] 1.09 | [6] 1.11

GGYTRYCDGKK [PROS1_Y266_C265R]
inactive: [1] 0.712 | [2] 0.77 | [3] 0.672 | [4] 0.779 | [5] 0.791 | [6] 0.948

PKAWNYELPAT [PROM1_Y34]
inactive: [1] 0.929 | [2] 0.899 | [3] 0.642 | [4] 0.965 | [5] 0.793 | [6] 1.08

LLVVLYKYRCF [PSEN1_Y154_Y159F]
inactive: [3] 3.2 | [4] 2.78 | [6] 2.73
active: [1] 3.75 | [2] 3.88 | [5] 3.48

PVDNLYAEPAV [PRPS1_Y146]
inactive: [1] 0.586 | [2] 0.637 | [3] 0.657 | [4] 0.454 | [5] 0.767 | [6] 0.687

LVFIKYLPEWT [PSEN1_Y240]
active: [1] 4.04 | [2] 4.09 | [3] 4.06 | [4] 3.2 | [5] 3.32
inactive: [6] 3.18

GGYTWYCDGKK [PROS1_Y266_C265W]
inactive: [1] 0.789 | [2] 0.984 | [3] 0.769 | [4] 0.865 | [5] 0.878 | [6] 1.39
